Hit rate of the full screen: of about 73,000 compounds, about 1,800 (2.5%) were called active. This list was built around the results that the source calls inconclusive (neither active nor inactive); the mix of calls is not that of the screen. Calls follow the shape of the dose curve; as a rule, active = well fitted activation curve with a large enough effect; inconclusive = small, poorly fitted or top-dose-only effect; inactive = no such curve, though single readings can be large or run the other way. Potencies of inconclusive entries are left out as doubtful fits.
Assay: qHTS Assay for Agonists of the Thyroid Stimulating Hormone Receptor: Activators of Intracellular cAMP Concentrations in Parental HEK 293; also: nearly all actives have a fitted effect of over 55% in size; as to activation: % of control where 0% means no effect
Conditions: parental HEK293 CNG cAMP sensor, membrane potential fluorescence; activation: at 57.1 µM (top of the series) unless noted
Method in brief: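 Parental HEK 293 cells stably expressing a modified CNG channel (no TSHR) report cAMP rise as membrane depolarization. Membrane potential dye with 100 uM RO 20-1724 was loaded for 60 min at room temperature, then compound added for 30 min; fluorescence read at 590 nm.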
Potency is read from the fitted curve at half-maximal effect; tags tell the direction and shape of the fitted curve.

Structure (SMILES)	activation	Potency
CCC(C)(C)n1nnnc1C(c1ccccn1)N1CCOCC1 (configuration not stated)	inactive: 7.53%	
O=C(CSc1ccc2nnc(-c3ccccn3)n2n1)NCc1ccc2c(c1)OCO2		inconclusive [activator, single point]
O=C(NC1CCCCC1)C(c1ccc(F)cc1)N(Cc1ccco1)C(=O)Cn1nnc2ccccc21 (configuration not stated)		active: 15.8 µM
COc1ccc(C2=NOC(C(=O)NCc3ccco3)C2)cc1OC (configuration not stated)	inactive: 8.46% [at 2.29 µM]	
Cc1cccc(OCc2nnc(SCC(=O)c3ccccc3)o2)c1		active: 3.98 µM
CC(C)(C)N=C1NC(=NC(C)(C)C)c2ccccc21	inactive: 2.41%	
O=c1oc2cc(Br)ccc2n1CSC1=NCCS1		inconclusive [activator, partial curve]
COc1ccc(C(=O)N2CCC[C@@]3(CCN(C(=O)Nc4ccccc4)C3)C2)cc1		inconclusive [activator, single point]
O=C(NCc1ccco1)C12CC3CC(C1)CC(C(=O)NCc1ccco1)(C3)C2		inconclusive [activator, partial curve]
CCOc1ccccc1NC1c2ccccc2C(=O)N1Cc1ccco1 (configuration not stated)		inconclusive [activator, partial curve]
O=C(c1ccncc1)N1CCC2(CC1)CN(c1ccccc1)C2		inconclusive [activator, single point]
CSc1nc(C)cc(Nc2ccc(O)c(CN3CCCCC3)c2)n1	inactive: -1.41% [at 11.4 µM]	
CCOc1ccc(S(=O)(=O)NCCN2CCOCC2)c2ccccc12		inconclusive [activator, partial curve, poor fit]
CCCCCCn1c(NCC)nc2c1c(=O)[nH]c(=O)n2C		inconclusive [activator, single point]
Cc1occc1C(=O)NCc1ccccc1F		inconclusive [activator, single point]
O=C(COc1ccc(Cl)cc1Cl)Nc1ccccn1	inactive: 16.5%	
COc1ccc(NC(=O)C(Cc2ccccc2)NC(=O)c2ccco2)cc1OC (configuration not stated)		inconclusive [activator, single point]
CCCn1c(=O)c2ccccc2n2c(SCc3cc(=O)n4ccsc4n3)nnc12		inconclusive [activator, partial curve]
CCN(C(=O)CCc1nc(-c2ccc(OC)cc2)no1)c1cc(OC)ccc1OC		inconclusive [activator, single point]
O=C(O)/C=C\c1cnc[nH]1		inconclusive [activator, partial curve]
O=C(CCSc1nc(-c2ccc3c(c2)OCO3)cc(C(F)(F)F)n1)NCc1ccco1		inconclusive [activator, single point]
CCc1cc2cc(C(=O)Nc3ccccc3F)sc2s1		inconclusive [activator, partial curve]
O=S(=O)(N1CCCCC1)n1c(Cc2ccccc2)nc2ccccc21		active: 31.6 µM
CCCC(OC(=O)CN1C(=O)COc2ccccc21)C(=O)NC1CCCC1 (configuration not stated)		active: 0.794 µM

Structure (SMILES)	activation	Potency
CCCn1c(NC(=O)c2ccc(C)cc2)nc2ccccc21		active: 25.1 µM
Cc1ccc(S(=O)(=O)c2c(C)nn(C(C)(C)C)c2OC(=O)C(C)(C)C)cc1		inconclusive [activator, partial curve]
Cc1cc(C)cc(OCC(=O)Nc2cccc(-c3nnc(-c4ccco4)o3)c2)c1		active: 25.1 µM
COc1ccc(Cn2nnnc2C(c2cccs2)N2CCN(c3ccccc3)CC2)cc1 (configuration not stated)		inconclusive [activator, partial curve]
COc1cc(C(c2sc3nc(C)nn3c2O)N2CCOCC2)cc(OC)c1OC (configuration not stated)	inactive: 1.23%	
O=S(=O)(Nc1ccc2c(c1)OCCO2)c1cccc2nsnc12	inactive: 11.3%	
O=C(NCCc1csc(-c2cccnc2)n1)c1cccs1		inconclusive [activator, partial curve]
c1ccc2c(N3CCCC3)nc(-c3ccncc3)nc2c1		inconclusive [activator, full curve]
CC(C)(C)c1ccc([C@@H](O)CCCN2CCC(C(O)(c3ccccc3)c3ccccc3)CC2)cc1		inactive
CCOc1ccc(C2CC(c3ccccc3C)n3ncnc3N2)cc1 (configuration not stated)		inconclusive [activator, partial curve]
CCC(C)(C)NC(=O)C(c1ccncc1)N(Cc1cccs1)C(=O)Cn1nnc2ccccc21 (configuration not stated)		active: 20 µM
CCn1c(=S)sc2c(=O)n(-c3ccccc3)c(SC)nc21		active: 25.1 µM
Cc1ccc(S(=O)(=O)N(CCO)c2cc3c(s2)CCCC3)cc1		inconclusive [activator, partial curve]
CC(=O)/C(C[N+]1(C)CCCCC1)=N\O		inconclusive [activator, single point]
CCOc1ccc(S(=O)(=O)NCCC(=O)OC(C)C(=O)N2CCc3ccccc32)cc1 (configuration not stated)		inconclusive [activator, single point]
O=C(O)CNCCc1ccccc1	inactive: -55.7% [at 11.4 µM]	
O=C(c1ccncc1)N1CCC2(CC1)CCN(c1ccncc1)CC2	inactive: 2.21%	
Cc1ccc(C(c2nnnn2Cc2cccs2)N2CCN(C(=O)c3ccco3)CC2)cc1 (configuration not stated)		inconclusive [activator, single point]
CC(C)(C)NC(=O)CSc1ncnc2c1nnn2Cc1ccccc1Cl	inconclusive: 32.1% [activator]	
O=C(CN1C(=O)C2C3C=CC(C3)C2C1=O)Nc1nc(SCc2ccc(Cl)cc2)n[nH]1 (configuration not stated)		inconclusive [activator, partial curve]
c1cncc(-c2nc3ccccn3c2Nc2ccc3c(c2)OCCO3)c1		inconclusive [activator, single point]
CCOc1ccc(Nc2oc(Cc3ccccc3)nc2C#N)cc1	inactive: 6.65%	
CCN(CC)S(=O)(=O)c1cc(C(=O)Nc2ccncc2)ccc1Cl		inconclusive [activator, partial curve]
